Measurements from the supplement of paper PMC11125491.
± gives the standard deviation of the averaged measurements. Growth of baker's yeast expressing single-residue variants of Pneumocystis jirovecii dihydrofolate reductase in 8.8 or 44 µM methotrexate (about 75% and 90% inhibition of the wild type). Selection coefficient per generation; 0 = like wild type, above 0 = less sensitive, below 0 = more sensitive or loss of function. No active / inactive call per row; the paper calls resistant above 0.220 (8.8 µM) or 0.243 (44 µM) together with a significance test. At 44 µM about 15% of codons end with one read or none, so the lowest values are floors (replicate rank correlation 0.74; 0.94 at 8.8 µM).

B1: UniProt A0EPZ9; numbered along this chain (parent)
chain: MDWQKSLTLIVALTLSRGIGLKNDLPWKLKSDMMFFSRVTSGLLVTRSTGQMNVVLMGRKTWESLPAHSRPLKNRINVVISRQEVLDLGGGAYHARSLDDALALLSQIYDSTSKIQLNRVFVIGGGELCKAAMEHSRLNRIIATVIHNEVDCDVFFPIDFRSSQSCLPWRKQDHSVLEAWVGSKVPQGKINENGFIYEFEMWIRDI

Variants of: B1
Experiment: selection coefficient against synonymous wild-type codons (log2 per generation); higher = faster growth than wild type
Settings: with Saccharomyces cerevisiae carrying the variant on a plasmid
Method: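 Pooled growth of yeast carrying single-residue variants of P. jirovecii dihydrofolate reductase (own DFR1 gene intact), two passages at 30 °C, three cultures, sequenced before and after. Codons with under 15 starting reads are left out; codons of one change are averaged.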

Variant | selection coefficient against synonymous wild-type codons (log2) (methotrexate 8.8 µM) | selection coefficient against synonymous wild-type codons (log2) (methotrexate 44 µM)
V39R | -0.495 ± 0.11 | -0.303 ± 0.15
V39S | 0.174 ± 0.033 | 0.221 ± 0.031
V39T | 0.0453 ± 0.039 | 0.017 ± 0.05
V39W | -0.0628 ± 0.028 | -0.0841 ± 0.12
V39Y | -0.0111 ± 0.025 | 0.202 ± 0.07
T40A | -0.0516 ± 0.065 | 0.209 ± 0.04
T40C | 0.168 ± 0.078 | 0.216 ± 0.044
T40D | -0.581 ± 0.093 | -0.443 ± 0.014
T40E | -0.676 ± 0.027 | -0.386 ± 0.084
T40F | -0.57 ± 0.022 | -0.364 ± 0.061
T40G | -0.529 ± 0.12 | -0.245 ± 0.1
T40H | -0.601 ± 0.062 | -0.438 ± 0.038
T40I | -0.513 ± 0.18 | -0.265 ± 0.092
T40K | -0.527 ± 0.095 | -0.322 ± 0.11
T40L | -0.686 ± 0.04 | -0.206 ± 0.19
T40M | -0.556 ± 0.1 | -0.241 ± 0.21
T40N | -0.512 ± 0.055 | -0.349 ± 0.062
T40P | -0.553 ± 0.064 | -0.306 ± 0.12
T40Q | -0.614 ± 0.085 | -0.299 ± 0.13

Variant | selection coefficient against synonymous wild-type codons (log2) (methotrexate 8.8 µM) | selection coefficient against synonymous wild-type codons (log2) (methotrexate 44 µM)
T40R | -0.591 ± 0.11 | -0.343 ± 0.058
T40S | 0.308 ± 0.021 | 0.348 ± 0.039
T40V | 0.0277 ± 0.025 | 0.185 ± 0.029
T40W | -0.666 ± 0.024 | -0.31 ± 0.12
T40Y | -0.647 ± 0.035 | -0.4 ± 0.028
S41A | -0.0404 ± 0.058 | -0.0376 ± 0.053
S41C | -0.116 ± 0.029 | -0.0599 ± 0.048
S41D | 0.336 ± 0.016 | 0.371 ± 0.033
S41E | 0.204 ± 0.015 | 0.237 ± 0.033
S41F | -0.223 ± 0.066 | -0.113 ± 0.09
S41G | 0.13 ± 0.042 | 0.151 ± 0.078
S41H | -0.018 ± 0.024 | -0.084 ± 0.085
S41I | -0.555 ± 0.095 | -0.111 ± 0.075
S41K | 0.0752 ± 0.051 | 0.0888 ± 0.15
S41L | -0.183 ± 0.048 | -0.113 ± 0.25
S41M | -0.324 ± 0.12 | -0.275 ± 0.13
S41N | 0.227 ± 0.0049 | 0.191 ± 0.07
S41P | 0.05 ± 0.043 | 0.242 ± 0.032
S41Q | -0.0311 ± 0.084 | -0.00859 ± 0.1

Variant | selection coefficient against synonymous wild-type codons (log2) (methotrexate 8.8 µM) | selection coefficient against synonymous wild-type codons (log2) (methotrexate 44 µM)
S41R | -0.0662 ± 0.066 | -0.105 ± 0.13
S41T | -0.0779 ± 0.073 | 0.0432 ± 0.23
S41V | -0.346 ± 0.08 | -0.321 ± 0.13
S41W | -0.323 ± 0.066 | -0.244 ± 0.11
S41Y | -0.189 ± 0.087 | -0.00764 ± 0.076
G42A | 0.00197 ± 0.045 | 0.0149 ± 0.15
G42C | -0.15 ± 0.077 | -0.0843 ± 0.069
G42D | 0.26 ± 0.015 | 0.267 ± 0.027
G42E | 0.128 ± 0.047 | 0.148 ± 0.053
G42F | -0.155 ± 0.14 | -0.0975 ± 0.12
G42H | -0.0498 ± 0.045 | -0.0914 ± 0.12
G42I | -0.214 ± 0.074 | -0.203 ± 0.046
G42K | -0.0565 ± 0.033 | -0.0825 ± 0.12
G42L | 0.00889 ± 0.071 | 0.00597 ± 0.16
G42M | -0.0396 ± 0.027 | -0.0446 ± 0.11
G42N | 0.113 ± 0.013 | 0.154 ± 0.0022
G42P | 0.405 ± 0.026 | 0.428 ± 0.054
G42Q | -0.0471 ± 0.14 | -0.0425 ± 0.15
G42R | -0.05 ± 0.068 | -0.0634 ± 0.13
